Measured values taken from PubChem BioAssay (NCI).
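Dose response: 5 concentrations. Exposure: 48 h. Format: 96-well plates. Endpoint: linear interpolation; highest concentration if not reached. Here, GI50 denotes the concentration required for 50% inhibition of growth.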 A number of entries come with more than one value. The other results are left out here. There may be further records. The records of an entry repeat one measurement in other runs, samples, wells, individuals or studies. Brackets tell where a record comes from. Letters count within one entry. Where a SMILES comes first, the peptide text is derived from it. The star is where a group is joined. Fmoc = O=C(OCC1c2ccccc2-c2ccccc21)*; Boc = CC(C)(C)OC(=O)*; OtBu = CC(C)(C)O*

Test system: SK-OV-3 ovarian
Assay: NCI tumour cell line growth inhibition, 48 h

SMILES: CC(C)(C)OC(=O)CCC(NC(=O)OCC1c2ccccc2-c2ccccc21)C(=O)NC(Cc1c[nH]c2ccccc12)C(=O)NC(CCCCNC(=O)OC(C)(C)C)C(=O)N1CCCC1C(=O)NCC(N)=O (stereo unspecified) (Fmoc-E(OtBu)WK(Boc)PG-NH2; configuration not given here)
- GI50: > 100 µM [sample A, 1 test] and 953 nM [sample B, 1 test]
